Measured values as given in PubChem BioAssay AID504339 (National Center for Advancing Translational Sciences (NCATS), 2011).
The whole screen tested about 390,000 compounds, of which about 17,000 (4.4%) were called active. This list was built around the results that the source calls inconclusive (neither active nor inactive); the mix of calls is not that of the screen. Calls follow the shape of the dose curve; as a rule, active = well fitted inhibition curve with a large enough effect; inconclusive = small, poorly fitted or top-dose-only effect; inactive = no such curve, though single readings can be large or run the other way. Potencies of inconclusive entries are doubtful fits and often do not repeat.

Molecular target: Lysine-specific demethylase 4A (Homo sapiens) (UniProt O75164)
Assay: qHTS Assay for Inhibitors of JMJD2A-Tudor Domain; also: nearly all actives have a fitted effect of over 50% in size
Conditions: AlphaScreen JMJD2A-Tudor / H3K4me3 peptide binding; series mostly up to 114 µM
Potency is read from the fitted curve at half-maximal effect; tags tell the direction and shape of the fitted curve.

UniProt O75164, sequence (O75164 whole entry, looked up, the tested form may be a part): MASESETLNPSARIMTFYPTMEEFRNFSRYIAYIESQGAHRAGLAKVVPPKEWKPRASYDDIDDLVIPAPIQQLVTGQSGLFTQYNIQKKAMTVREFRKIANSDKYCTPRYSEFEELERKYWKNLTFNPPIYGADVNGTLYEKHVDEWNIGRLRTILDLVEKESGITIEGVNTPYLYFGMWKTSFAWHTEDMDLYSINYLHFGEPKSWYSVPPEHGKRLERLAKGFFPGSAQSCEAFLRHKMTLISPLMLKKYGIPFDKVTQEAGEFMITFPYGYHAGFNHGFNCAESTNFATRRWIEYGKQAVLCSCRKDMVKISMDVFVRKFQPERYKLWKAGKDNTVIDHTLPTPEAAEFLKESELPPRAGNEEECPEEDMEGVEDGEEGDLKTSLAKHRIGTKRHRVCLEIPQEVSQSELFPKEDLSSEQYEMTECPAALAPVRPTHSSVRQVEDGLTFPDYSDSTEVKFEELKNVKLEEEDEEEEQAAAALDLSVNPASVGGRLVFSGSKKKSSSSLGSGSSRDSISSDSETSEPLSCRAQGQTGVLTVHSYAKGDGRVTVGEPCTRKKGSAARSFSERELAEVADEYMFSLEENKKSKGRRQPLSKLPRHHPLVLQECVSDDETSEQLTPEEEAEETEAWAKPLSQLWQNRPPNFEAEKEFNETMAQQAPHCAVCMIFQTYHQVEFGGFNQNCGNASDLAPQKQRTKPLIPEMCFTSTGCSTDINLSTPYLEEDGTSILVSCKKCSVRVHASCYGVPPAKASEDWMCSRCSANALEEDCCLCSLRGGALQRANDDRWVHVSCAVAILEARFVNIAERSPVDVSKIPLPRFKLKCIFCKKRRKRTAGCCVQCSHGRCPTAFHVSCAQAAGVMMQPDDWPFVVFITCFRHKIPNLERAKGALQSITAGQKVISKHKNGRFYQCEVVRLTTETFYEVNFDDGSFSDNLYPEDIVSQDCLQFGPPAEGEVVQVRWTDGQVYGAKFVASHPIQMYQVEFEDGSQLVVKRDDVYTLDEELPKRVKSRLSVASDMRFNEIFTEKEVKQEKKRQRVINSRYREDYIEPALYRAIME

Potency, active:
COCCCNC(=S)N/N=C/c1ccccc1O 56.2 µM, CCc1ccccc1NC(=O)CSc1ncc(S(=O)(=O)c2ccc(C(C)C)cc2)c(N)n1 20 µM, O=C(C1=C(O)C(=O)N(CCN2CCOCC2)C1c1ccc([N+](=O)[O-])cc1)c1cccs1 (stereo not drawn) 44.7 µM, O=C(NCc1cccnc1)C1CC(c2ccccc2O)=NO1 (stereo not drawn) 50.1 µM, C=CCn1c(C(C)NC(=O)c2ccccc2)n[nH]c1=S (stereo not drawn) 10 µM, CNc1ccc(C=C2C=Cc3ccccc32)cc1 28.2 µM, CCCn1c(=O)n(C)c(=O)c2c(SCC(=O)NCc3ccco3)nc(C3CC3)nc21 79.4 µM, C=CSc1sc(Cl)c(N2CCOCC2)c1[N+](=O)[O-] 50.1 µM

Potency, inconclusive:
COc1ccc(OCC(=O)Nc2ccc(NC(=O)c3ccco3)c(C)c2)cc1 50.1 µM [inhibitor, partial curve], CCOC(=O)N1CCc2[nH]c3ccc(C)cc3c2C1 56.2 µM [inhibitor, partial curve], O=c1c2cc(NC(=S)NC3CCN(Cc4ccccc4)CC3)ccc2nc2n1CCCCC2 63.1 µM [inhibitor, partial curve], O=C(O)c1cccnc1C(=O)N1CCc2c([nH]c3ccccc23)C1C(F)(F)F (stereo not drawn) 89.1 µM [inhibitor, single point], O=[N+]([O-])c1cc(C(F)(F)F)ccc1N1CCN(S(=O)(=O)c2ccc3ccccc3c2)CC1 12.6 µM [inhibitor, partial curve, poor fit], CCN(Cc1cc2cc(OC)ccc2[nH]c1=O)C(=O)Cc1ccc(OC)cc1 28.2 µM [inhibitor, single point], O=C1CC(=O)N2N=C(c3ccc([N+](=O)[O-])cc3)SC2=N1 50.1 µM [inhibitor, single point], COc1cc(NC(=O)c2ccccc2)c(OC)cc1NC(=O)CN1C(=O)N(C)C2(CCCCC2)C1=O 44.7 µM [inhibitor, partial curve], O=[N+]([O-])c1ccc(N2CCN(C(=S)NC3CCCCC3)CC2)cc1 44.7 µM [inhibitor, partial curve], Cc1cc(C(=O)NNc2ccc(C(C)C)cc2)n(C(C)(C)C)n1 50.1 µM [inhibitor, partial curve], CCc1cccc(C)c1Nc1c(-c2cccc(O)c2)nc2nc(C)cc(C)n12 39.8 µM [inhibitor, full curve, poor fit], CCCN1C(=O)/C(=C/c2nc3ccccc3c(=O)[nH]2)c2cc(C)ccc21 50.1 µM [inhibitor, partial curve, poor fit], Cc1ccc(CN(Cc2ccco2)C(=O)c2ccc(Cl)cc2)o1 63.1 µM [inhibitor, partial curve, poor fit], Cc1c(C(=O)O)sc(S(=O)(=O)N2CCN(C(=O)Cc3ccccc3)CC2)c1C(=O)O 31.6 µM [inhibitor, single point], Cc1[nH]c2ccccc2c1-c1csc(NC(=O)CN2CCOCC2)n1 56.2 µM [inhibitor, partial curve], Cc1nonc1NC(=O)CSc1nc2cc(Cl)ccc2c2c1CCCC2 89.1 µM [inhibitor, partial curve], COc1ccc2[nH]cc(CCNC(=O)CCC3CCCCC3)c2c1 56.2 µM [inhibitor, partial curve], Cc1ccc(N=Nc2c(C)[nH][nH]c2=O)c(C)c1 39.8 µM [inhibitor, full curve, poor fit], Cc1cccc(C)c1NC(=O)CC(NCCc1ccccc1)C(=O)O (stereo not drawn) 3.98 µM [inhibitor, full curve], O=Cc1c(NCCCN2CCCC2=O)c2ccccc2[nH]c1=O 79.4 µM [inhibitor, single point], CCCCC1=CC2=C(c3ccco3)C(=O)C(C)(OC(=O)c3ccc(OC)cc3)C(=O)C2=CN1C(CO)CO (stereo not drawn) 56.2 µM [inhibitor, partial curve], COc1ccc(-c2noc(CN(C)Cc3ccc(C)o3)n2)cc1 50.1 µM [inhibitor, partial curve], O=C(c1ccccc1)c1nc2ccccc2n(CCCn2c(=O)c(C(=O)c3ccccc3)nc3ccccc32)c1=O 63.1 µM [inhibitor, partial curve, poor fit], Cc1cc(=O)[nH]c2ccc(Cl)cc12 79.4 µM [inhibitor, single point], CC(C)Cc1nnc(NC(=O)CCC(=O)N2CCN(c3ccc([N+](=O)[O-])cc3)CC2)s1 70.8 µM [inhibitor, partial curve, poor fit], CCC(C)c1ccc(NC(=S)Nc2ccc(OC)cc2)cc1 (stereo not drawn) 89.1 µM [inhibitor, partial curve], O=C(O)c1cccc(-n2cccc2C=C2C(=O)c3ccccc3C2=O)c1 56.2 µM [inhibitor, partial curve], O=[N+]([O-])c1cc(Cl)ccc1N1CCCC1 44.7 µM [inhibitor, partial curve], CNC(=S)N/N=C/c1cn(CCOc2cccc(OC)c2)c2ccccc12 22.4 µM [inhibitor, full curve], O=C(COC(=O)c1ccc2ncsc2c1)Nc1ncc(Cl)cc1Cl 44.7 µM [inhibitor, single point], O=C(CN1CCN(c2ccccc2O)CC1)Nc1ccc2c(c1)CCC2 39.8 µM [inhibitor, partial curve], CCCCc1c(C)nc2ccc(OC)cc2c1SCCC(=O)O 79.4 µM [inhibitor, single point], Cc1cc(O)c(NC(=O)c2cc([N+](=O)[O-])ccc2Cl)cc1C 56.2 µM [inhibitor, partial curve], COc1ccc(C2(CNC(=O)c3ccc(OC)c([N+](=O)[O-])c3)CCCCC2)cc1OC 39.8 µM [inhibitor, partial curve], CCN(CC)S(=O)(=O)c1ccc2oc(SCC(=O)Nc3cc(C)on3)nc2c1 89.1 µM [inhibitor, partial curve], COc1ccccc1NC(=O)COn1nnc2ccc(S(=O)(=O)N3CCOCC3)cc21 15.8 µM [inhibitor, full curve, poor fit], COCc1[nH][nH]c(=O)c1C=Nc1ccc(F)cc1F 31.6 µM [inhibitor, single point], COc1ccc(NC(=S)Nc2nc(CC(=O)Nc3ccccc3OC)cs2)cc1 39.8 µM [inhibitor, full curve], Cc1ccc(C)c(N2CCN(C(=O)c3cc(S(=O)(=O)N4CCCCCC4)cn3C)CC2)c1 35.5 µM [inhibitor, partial curve], C#CCOCCOCCOCCNc1nc(N2CCN(C(=O)CCCCCCCCCCNC(=O)[C@H](CCCCN)n3cc(CCCC(=O)O)nn3)CC2)nc(N2CCN(C(=O)CCCCCCCCCCNC(=O)[C@H](CCCCN)n3cc(CCCC(=O)O)nn3)CC2)n1 89.1 µM [inhibitor, partial curve], Cc1cccc2sc(N(CCCN(C)C)C(=O)COc3ccccc3)nc12 63.1 µM [inhibitor, partial curve, poor fit], COc1ccc(Nc2ncnc3c2c(C)c(C)n3CCCN(C)C)cc1 14.1 µM [inhibitor, full curve, poor fit]

Potency, inactive:
O=C(O)c1ccc(/C=N/Nc2nnnn2-c2ccccc2)cc1, CC1=C(C(=O)Nc2ccc(Cl)cc2)C(c2ccc(C(F)(F)F)cc2)n2nnnc2N1 (stereo not drawn), COc1ccc(NC(=O)CSc2nccn2Cc2ccco2)c(OC)c1, Cc1c(C(C)CCCO)oc(=O)c2c1Oc1c(C)c(C(C)C[C@H](C)O)oc(=O)c1C2 (stereo partly drawn), O=S(=O)(c1cccc(F)c1)N1CCC(Oc2ccc(-n3cnnn3)cc2)CC1, COc1ccc(C(=O)OC(C)C(=O)NC2CCCCC2C)cc1S(=O)(=O)N1CCOCC1 (stereo not drawn), Cc1c(CC(=O)NCCCC(=O)O)c(=O)oc2cc3occ(-c4ccccc4)c3cc12, Cc1cc(N/N=C/c2ccc(O)c(C)c2O)nc(-c2ccccc2O)n1, COc1cc(Cl)c(C)cc1NC(=O)Cn1ncc2c3ccccc3n(Cc3ccccc3)c2c1=O, COc1ccc(C(=O)N2c3ccc(C)cc3C(C)(c3ccccc3)CC2(C)C)cc1 (stereo not drawn), CCOC(=O)C1CCN(C(=O)Nc2ccc(OC(F)(F)F)cc2)CC1, COc1ccc(-c2cn3c(n2)sc2cc(C(=O)NCCc4ccc(OC)cc4OC)ccc23)cc1, CCOc1ccc(CNS(=O)(=O)c2ccc(-c3coc(C)n3)cc2)cc1OC, CCN(Cc1ccccc1)C(=O)c1sc2nc3n(c(=O)c2c1C)CCCC3, CN(C(=O)COC(=O)/C=C/c1ccccc1[N+](=O)[O-])c1ccccc1, Cc1ccccc1NNC(N)=S, Cc1cccc(C=Nc2ccc3c(c2)oc2ccccc23)c1O, CCOCCc1nnc(NC(=O)Cc2c(F)cccc2Cl)s1
